Results from PubChem BioAssay AID1963576 (National Center for Advancing Translational Sciences (NCATS), 2024).
Among all 46,000 compounds or so, about 60 (0.1%) were called active. Not shown: some 3% with an inconclusive outcome. Calls follow the shape of the dose curve; as a rule, active = well fitted inhibition curve with a large enough effect; inconclusive = small, poorly fitted or top-dose-only effect; inactive = no such curve, though single readings can be large or run the other way. This is one part of the list.

Assay: Primary qHTS assay for Inhibitors of ovarian cancer metastasis using an organotypic tumor microenvironment (TME) model. Also: nearly all actives have a fitted effect of over 65% in size.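 As to activity change, negative = inhibition: plate controls were DMSO wells for no effect and tomatine positive control wells for full effect.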
Details: SKOV3ip1-GFP adhesion/invasion on 3D omental model, fluorescence; series mostly up to 45.8 µM; activity change, negative = inhibition: at the top concentration
Method in brief: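 qHTS, 4-pt dose (0.36-46 umol/L); SKOV3ip1-GFP, 1,200 cells/well, no FBS; primary omental fibroblast/mesothelial co-culture 48 h pre-grown; 2 h RT + 16 h 37 C; PBS wash, 4% PFA; GFP count 488/509 nm.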

Activity change, negative = inhibition, inactive:
CC1CCN(c2cc(N3CCN(C)CC3)ccc2NC(=O)c2cc(C#N)c[nH]2)CC1 23.3%, COc1cccc(C(=O)Nc2ccc(C(=O)OCc3cc(=O)n4nc(C5CC5)sc4n3)cc2)c1 1.51%, COc1cc(OC)c(NC(=O)N2CC=C(c3c[nH]c4ccccc34)CC2)cc1Cl 3.44%, COc1ccccc1OCc1nc(-c2cccc(C)c2)no1 7.11%, O=C(c1ccco1)N1CCN(C(=O)c2cnn(-c3cccc(F)c3)c2C2CCNCC2)CC1 43.4%, Cc1cccc(-c2nc(SCC(=O)N(C)c3ccccc3)c3c(=O)n(C)c(=O)n(C)c3n2)c1 13.2%, O=C(O)c1ccc(C2Nc3ccccc3-c3nnc(SCc4ccc(Cl)cc4)nc3O2)cc1 (centres undefined) -9.12%, Cc1ccc(-c2cc(C(F)(F)F)n3ncc(-c4ccc(Cl)cc4)c3n2)cc1 -6.23%, CCOC(=O)C1CCN(C(=O)c2ccc3c(c2)N=C(CC)c2cc(C)ccc2S3)CC1 6.19%, CN(C)CCN1C(=O)c2cccc3cc(N)cc(c23)C1=O 11%, CCCCn1c(=O)nc2n(-c3ccc(F)cc3)c3ccccc3cc-2c1=O 4.36%, CC(Sc1nc2c([nH]c3ccccc32)c(=O)n1-c1ccccc1)c1ccccc1 (centres undefined) -28.1%, CCC(=O)N1CCc2cc(S(=O)(=O)CCC(=O)NCc3ccc(OC)cc3)ccc21 8.12%, O=C(CSc1nc2c(cnn2-c2ccc(F)cc2)c(=O)[nH]1)Nc1ccccc1C(F)(F)F -4.08%, COc1cccc(CNC(=O)c2cc3ccc4cccnc4c3[nH]2)c1 -2.76%, CCOc1ccc(N2CC(c3nc4ccccc4n3CCOc3ccccc3)CC2=O)cc1 (centres undefined) 12.1%, COc1ccc(C2C=C(c3ccccc3)Nc3nc(NC(=O)/C=C/c4ccc(Cl)cc4)nn32)cc1 (centres undefined) -20%, Cc1nc2ncnn2c(C)c1CCC(=O)NCc1cccc(Cl)c1 6.32%, CCCCc1nn2c(=O)cc(COC(=O)c3ccccc3NC(=O)c3cccc(C)c3)nc2s1 0.0399%, O=c1cc(CN2CCOCC2)occ1OCCCCCSc1ccnc2cc(C(F)(F)F)ccc12 -0.824%, Cc1cccc(NC(=O)c2c(C)oc3ncnc(N4CCCCC4)c23)c1C 8.07%, CCOC(=O)N1CCN(C(=O)Cn2ncc3c4ccccc4n(Cc4ccc(F)cc4)c3c2=O)CC1 -15.9%, O=C(COc1ccc(F)cc1)Nc1ccc(Cl)c(-c2nc3ccccc3[nH]2)c1 -1.17%, COc1ccccc1-c1nnc(C2CCN(S(=O)(=O)c3ccc(F)c(C)c3)CC2)o1 3.08%, Cc1noc(C)c1S(=O)(=O)NCCc1csc2nc(-c3ccc(Cl)cc3)nn12 -5.37%, CCOC(=O)c1c(NC(=O)COc2ccc(Br)cc2)sc(C(C)=O)c1C -5.63%, Cc1ccc(C(=O)NCC(c2cccnc2)N2CCc3ccccc3C2)cc1C (centres undefined) 14.3%, CC(=O)Nc1cccc(-c2cn3cccnc3n2)c1 -2.46%, COc1ccc2nc(NC(=O)c3cc(=O)c4cc(C)c(C)cc4o3)sc2c1 2.38%, Cc1nc(-c2ccc(F)cc2)sc1CCNC(=O)c1ccc(C(C)(C)C)cc1 -5.39%, N#Cc1ccccc1OCC(=O)N1CCN(c2ccccc2F)CC1 -0.0486%, Nc1c(C(=O)c2ccccc2)sc(Nc2ccc(Cl)c(Cl)c2)c1C(=O)Nc1ccccc1 3.28%, Cc1cccc(NC(=O)c2sc(-n3nc(C)c(CCC(C)C)c3C)nc2C)c1 -9.83%, Cc1ccc2c(c1)N(C(=O)N1CCC(C(=O)NCc3ccccc3F)CC1)CC(C)O2 (centres undefined) 5.88%, CCOC(=O)CSc1nc2c(sc3ccccc32)c(=O)n1Cc1ccc(OC)cc1 -12.4%, COc1ccc(-n2c3c(cc(-c4nc(-c5ccc(Cl)cc5)cs4)c2=O)C(=O)CC(C)(C)C3)cc1Cl 6.25%, CCOc1ccc(NC(=O)CCSc2nc(-c3ccc4c(c3)OCO4)cc(C(F)(F)F)n2)cc1 -6.26%, COc1cc2ccccc2cc1C(=O)Nc1ccc2oc(-c3cccc(C)c3)nc2c1 -3.81%, COc1ccc(OC)c(NC(=O)N2CCN(Cc3nc4ccc(C)cc4o3)CC2)c1 -27%, COc1ccc(-c2cn3c(n2)sc2cc(C(=O)Nc4ccc(C)cc4C)ccc23)cc1 -19.5%, O=S(=O)(c1ccccc1)c1nc(-c2ccccc2F)oc1N1CCOCC1 27.7%, CN(C(=O)Cn1nnc(-c2ccc(S(C)(=O)=O)cc2)n1)c1ccccc1 -14.1%, CCN1C(=O)c2ccccc2Sc2ccc(NC(=O)c3ccc(C#N)cc3)cc21 -9.24%, Cc1ccccc1NCc1nc2ccccc2n1CCOc1ccccc1 -9.33%, COc1ccc(NC(=O)CSc2oc(-c3ccco3)nc2S(=O)(=O)c2ccccc2)c(OC)c1 -16.2%, Cc1c(C(=O)N(C)C)sc2c1c(=O)n(-c1ccccc1C(F)(F)F)c(=O)n2Cc1cccc(F)c1 3.95%, O=C(NCCc1ccccc1)C1COc2ccccc2C1 (centres undefined) -25.4%, Cc1cc(=O)n(CC(=O)NC(C)c2ccccc2)c2c1c(C)nn2C (centres undefined) -2.34%, CCOC(=O)c1c(C)n(-c2ccccc2)c2ccc(OC(=O)c3cc(OC)cc(OC)c3)cc12 -1.04%, Cc1ccc(NC(=O)Cn2cc(C(=O)C3CCCCC3)c3ccccc32)c(C)c1 3.77%, CN1[C@H]2CC(OC(=O)[C@@H](CO)c3ccccc3)C[C@H]1[C@H]1O[C@H]12 (some centres undefined) -0.985% [at 23.2 µM], Cc1cccc(C(=O)Nc2nnc(S(=O)(=O)N3CCCc4ccccc43)s2)c1 3.25%, Cn1c(=O)n(C)c2cc(NS(=O)(=O)c3ccc(C(C)(C)C)cc3)c(NCc3ccccc3)cc21 -34.7%, CCCNc1nc2c(c(=O)n(C)c(=O)n2C)n1CC(O)COc1ccccc1 (centres undefined) 3.93%, CCC(=O)Nc1cc(-c2nc3ccccc3s2)c(Cl)cc1Cl -0.353%, CCS(=O)(=O)N1CCc2cc(C(=O)Nc3cc(OC)c(Cl)cc3OC)ccc21 2.73%, CCOc1ccc(C(=O)Nc2ccc3oc(-c4ccncc4)nc3c2)cc1 15.8%, Cc1ccc(Nc2nc(C)c(NC(=O)c3ccc(C)cc3)c(Nc3ccc(C)cc3)n2)cc1 1.32%, CCN1c2ccccc2-c2nc(SCC(=O)Nc3cc(F)ccc3F)ncc2S1(=O)=O 9.27%, CCOc1ccc(C2C(=O)N(C3CCCCCC3)CC(=O)N2CCc2ccc(Cl)cc2)cc1OC (centres undefined) -0.259%, O=C(Cn1ccc2cc(S(=O)(=O)N3CCCC3)ccc21)NCc1ccccc1Cl 2.62%, Cc1ccc(-c2nnc(Nc3cccc(Br)c3)c3ccccc23)cc1S(=O)(=O)NCC1CCCO1 (centres undefined) -3.92%, COC(=O)c1ccccc1NC(=O)CSc1nnc2cc(C)c3cc(C)cc(C)c3n12 16%, Cc1ccc(NC(=O)CCCn2nc(C)c3sc4ccccc4c3c2=O)c(Cl)c1 -5.64%, O=C(c1ccc2c(c1)N(Cc1ccc(Cl)cc1)C(=O)c1ccccc1S2(=O)=O)N1CCc2ccccc21 -6.01%, COc1ccc(OC)c(NC(=O)CSC2=Nc3ccccc3C3=NC(CCC(=O)NCCc4ccccc4)C(=O)N23)c1 (centres undefined) -9.75%, COc1ccccc1N1CCN(S(=O)(=O)c2c(C)sc3ncn(CC(=O)NCCN(C)C)c(=O)c23)CC1 -3.11%, Cc1nnc(NCc2ccc(F)cc2)c2c1nnn2Cc1ccccc1Cl -2.26%, CCOc1ccc(NC(=O)CCn2nc(C)c(S(=O)(=O)N3CCCCC3)c2C)cc1 -2.53%, COc1ccc(NC(=O)CC2C(=O)N(c3ccc(C)cc3)C(=O)N2Cc2ccc(C)cc2)cc1 (centres undefined) -1.88%, COc1ccc(CCNC(=O)Cn2nc(C)c3c(C)n(-c4ccc(C)cc4)nc3c2=O)c(OC)c1 -19.6%, Nc1ccc(S(=O)(=O)NC2(C(F)(F)F)NC(=O)N(c3cccc(Cl)c3)C2=O)cc1 (centres undefined) 15.3%

outcome, inactive:
Cn1c(=O)cc(SCC(=O)N2CCN(c3ccccc3)CC2)c2ccccc21, CCCN1C(=O)C2(c3ccccc31)c1c(oc3ccccc3c1=O)C(=O)N2CCCOC(C)C (centres undefined), COc1ccccc1N1CCN(C(=O)c2cc3c(=O)oc4ccccc4c3s2)CC1, COc1ccccc1NC(=O)C1=C(C)Nc2nc(SCc3cccc(F)c3)nn2C1c1ccc(C(=O)O)cc1 (centres undefined), Cc1ccc(NC(=O)c2cc(S(=O)(=O)N3CCCCC3)c[nH]2)cc1F, CCOc1ccc(C(=O)c2c(N)c(-c3nc(-c4ccc(OCC)cc4)cs3)c3ccccn23)cc1, Cc1ccc(NC(=O)Cn2c(=O)n(Cc3ccccc3)c(=O)c3c2c2cc(C)ccc2n3C)cc1, Cc1ccc(Cl)cc1NS(=O)(=O)c1ccc(N2CCCCS2(=O)=O)cc1, COc1ccc(CCNc2nc3cc(OC)c(OC)cc3c3nc(-c4cccnc4)nn23)cc1OC, COc1ccc(C(=O)Nc2nc3c(s2)Cc2cc(OC)ccc2-3)cc1, Cc1cccc(CN2C(=O)c3ccccc3Sc3ccc(C(=O)NCc4cccs4)cc32)c1, CCOC(=O)N1CCc2c(sc3c2c(=O)n(-c2ccc(F)cc2)c(=O)n3CC(=O)c2ccccc2)C1, CCOC(=O)c1c(NC(=O)c2cc3ccccc3c(=O)o2)sc2c1CCC(C(C)(C)C)C2 (centres undefined), CCc1ccc(NC(=O)c2cc(C)nn2-c2ccccc2)cc1, COc1ccc(NC(=O)c2oc3ccccc3c2NC(=O)COc2ccc(F)cc2)c(OC)c1, CCc1cccc(C)c1NC(=O)C(CC)Sc1nncn2c1cc1occc12 (centres undefined), CCOc1ccc(NC(=O)CCNS(=O)(=O)c2cccc3nsnc23)cc1, O=C(NCc1ccc(F)cc1)C(=O)NCC(c1ccco1)S(=O)(=O)c1cccs1 (centres undefined), CCC(C(=O)Nc1cccc(C#N)c1)n1nc(-c2ccccc2)ccc1=O (centres undefined), CCc1ccc(N2C(=O)N(CC(=O)C(C)(C)C)c3ccccc3S2(=O)=O)cc1, O=C(NCCC1=CCCCC1)c1ccc2c(c1)N(Cc1ccc(Cl)cc1)C(=O)c1ccccc1S2(=O)=O, Cc1c(Cl)cccc1NC(=O)Cn1cnc(S(=O)(=O)N2CCCC2)c1
